The whole screen tested about 350,000 compounds, of which about 260 (0.074%) were called active. Inconclusive means that the source gave no clear call. Such entries were picked first, then a sample of the others. Calls follow the shape of the dose curve; as a rule, active = well fitted inhibition curve with a large enough effect; inconclusive = small, poorly fitted or top-dose-only effect; inactive = no such curve, though single readings can be large or run the other way. Where the call is inconclusive, the potency comes from a doubtful curve fit.
target: Ferritin light chain (Equus caballus) (UniProt P02791); experiment: qHTS Assay for Identification of Novel General Anesthetics; details: apoferritin/1-aminoanthracene competitive binding, fluorescence; series mostly up to 77.5 µM; also: nearly all actives have a fitted effect of over 20% in size
UniProt P02791, sequence (P02791 whole entry, looked up): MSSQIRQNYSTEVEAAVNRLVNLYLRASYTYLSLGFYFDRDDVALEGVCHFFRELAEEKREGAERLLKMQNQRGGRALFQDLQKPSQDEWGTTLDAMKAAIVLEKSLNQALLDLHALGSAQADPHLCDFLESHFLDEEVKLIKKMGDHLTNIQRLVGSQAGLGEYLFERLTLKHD
How it was run: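 Steps: apoferritin (10 uM) was premixed with half-saturated 1-AMA in PBS, compounds were pin-transferred, plates stood 10 min at room temperature, fluorescence was read at 380/535 nm, and curves were fitted with a Hill equation.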
Tags tell the direction and shape of the fitted curve.

Row | SMILES | Potency
1 | Cc1ccc(SCCNC(=O)/C=C/c2ccccc2Cl)cc1 | inconclusive: 14.1 µM [inhibitor, partial curve]
2 | O=C(O)C1C2C=CC(C2)C1C(=O)NCc1ccc(Cl)cc1Cl (stereo not given) | inconclusive: 14.1 µM [inhibitor, partial curve]
3 | CC(C)(C)C(=O)/C=C(N)/C=C/c1ccccc1 | inconclusive: 35.5 µM [inhibitor, partial curve]
4 | COc1ccc(C2=C(N3CCN(c4cccc(C)c4)C(C)C3)c3ccccc3C2=O)cc1 (stereo not given) | inconclusive: 10 µM [inhibitor, partial curve]
5 | Cc1ccccc1/C(N)=N/OC(=O)N1c2ccccc2Sc2ccccc21 | inconclusive: 11.2 µM [inhibitor, full curve, poor fit]
6 | COc1ccc(S(=O)(=O)Nc2ccc3c(c2)OCO3)cc1 | inactive
7 | Cc1ccsc1/C=C1\CCc2ccccc2C1=O | inconclusive: 22.4 µM [inhibitor, partial curve]
8 | Cc1[nH]c2ccccc2c1SCC(=O)N1CCCCC1 | inconclusive: 39.8 µM [inhibitor, single point]
9 | CCc1ccc(OCCCCCn2ccnc2)cc1 | inconclusive: 25.1 µM [inhibitor, partial curve]
10 | COc1cc2ncc(C(=O)c3ccc(C)cc3)c(N3CCCCC3)c2cc1OC | inactive
11 | CC(C)NS(=O)(=O)c1ccc(NC(=O)C2CCCCC2)cc1 | inconclusive: 28.2 µM [inhibitor, partial curve]
12 | CCOc1nc(C#N)nc(N2CCCCC2)n1 | inactive
13 | COc1ccc(/C=C/C(=O)CC(=O)/C=C/c2cccc(O)c2OC)cc1O | inconclusive: 28.2 µM [inhibitor, partial curve]
14 | O=C(CCn1nnc(-c2cccs2)n1)N1CCc2ccccc2C1 | inconclusive: 17.8 µM [inhibitor, partial curve]
15 | CN(C)S(=O)(=O)c1cccc(NC(=S)NCc2ccc3c(c2)OCO3)c1 | inconclusive: 35.5 µM [inhibitor, partial curve]
16 | COc1ccc(Cn2cc(C(=O)c3ccc(C)c(C)c3)c(=O)c3ccccc32)cc1 | inconclusive: 17.8 µM [inhibitor, partial curve]
17 | CCCN1C(=O)/C(=C/c2ccc(C)s2)NC1=S | inconclusive: 56.2 µM [inhibitor, single point]
18 | Cc1cc2cc(C)c3nnc(SCC(=O)NCc4ccco4)n3c2cc1C | inconclusive: 35.5 µM [inhibitor, partial curve]
19 | CCCCCCCC(=O)N/N=C/c1ccc(Br)cc1 | inconclusive: 5.01 µM [inhibitor, full curve]
20 | COc1ccc(CNN2CCCCC2C(=O)Nc2ccc(OC)c(OCC(C)C)c2)cc1OC (stereo not given) | inactive
21 | CCC1(C)Cc2c(sc3nn[nH]c(=O)c23)CO1 (stereo not given) | inconclusive: 50.1 µM [inhibitor, single point]
22 | O=[N+]([O-])c1ccc(C23CC4CC(CC(O)(C4)C2)C3)cc1 | inconclusive: 15.8 µM [inhibitor, partial curve]
23 | C=C[C@@]1(C)CC[C@H]2C(=CC[C@@H]3[C@]2(C)CCC[C@@]3(C)C(=O)O)C1 | inactive
24 | O=C(COC(=O)CCSc1ccccc1)Nc1ccc(F)cc1Cl | inconclusive: 39.8 µM [inhibitor, partial curve]

Row | SMILES | Potency
25 | CCCNC(=O)NCCC12CC3CC(CC(C3)C1)C2 | inconclusive: 14.1 µM [inhibitor, partial curve]
26 | Cc1cccc(NC(=O)C(C)SCc2ccccc2)c1 (stereo not given) | inconclusive: 25.1 µM [inhibitor, single point]
27 | Cc1ccccc1NC(=O)CN1C(=O)NC(C)(CCc2ccccc2)C1=O (stereo not given) | inconclusive: 17.8 µM [inhibitor, partial curve]
28 | Cc1cc(N2CCN(C)CC2)nc2ccc(NC(=S)NCCCN3CCc4ccccc4C3)cc12 | inactive
29 | O=S(=O)(Nc1cnc2ccccc2c1)N1CCCCCC1 | inconclusive: 8.91 µM [inhibitor, partial curve]
30 | Cc1ccc(OC(C)C(=O)Nc2ccc(S(=O)(=O)N3CCOCC3)cc2)cc1 (stereo not given) | inconclusive: 15.8 µM [inhibitor, partial curve]
31 | CCN(Cc1ccccc1)C(=O)c1ccc(SC)cc1OC | inconclusive: 31.6 µM [inhibitor, partial curve]
32 | O=C(NCc1ccccc1)Nc1cccn(Cc2ccc(F)cc2)c1=O | inconclusive: 15.8 µM [inhibitor, partial curve]
33 | Cn1c(=O)c2c(nc(N3CCOCC3)n2CC(=O)C23CC4CC(CC(C4)C2)C3)n(C)c1=O | inconclusive: 15.8 µM [inhibitor, partial curve]
34 | N/C(=N\OC(=O)CCCOc1ccc(Cl)cc1Cl)c1ccccn1 | inconclusive: 31.6 µM [inhibitor, partial curve]
35 | O=C(CN1C(=O)NC2(CCCCC2)C1=O)Nc1ccc2c(c1)CCC2 | inconclusive: 22.4 µM [inhibitor, partial curve]
36 | O=C(c1cn(-c2ccccc2)nc1-c1ccc(F)cc1)N1CCOCC1 | inconclusive: 50.1 µM [inhibitor, partial curve]
37 | c1ccc2c(c1)nc(N1CCOCC1)c1nncn12 | inactive
38 | CCc1ccc(S(=O)(=O)c2cn(Cc3ccccc3F)c3cc(OC)c(OC)cc3c2=O)cc1 | inconclusive: 6.31 µM [inhibitor, full curve, poor fit]
39 | CCCCCCCCCCC[N+](C)(C)CC/C=C1/c2ccccc2Sc2ccc(Cl)cc21 | inconclusive: 50.1 µM [inhibitor, single point]
40 | COc1ccc(NC(=O)CSc2nnc(NC(=O)NC3CCCCC3)s2)cc1OC | inconclusive: 50.1 µM [inhibitor, single point]
41 | O=C(NCCc1ccccc1)c1nn(-c2ccc(F)cc2)nc1CO | inactive
42 | COc1ccccc1CNC(=O)c1ccc2c(=O)n(CCCN3CCCC3=O)c(=S)[nH]c2c1 | inconclusive: 39.8 µM [inhibitor, single point]
43 | Nc1nnc(/C=C/c2ccccc2)s1 | inconclusive: 31.6 µM [inhibitor, partial curve]
44 | CCOc1cc(S(=O)(=O)N2CCCCC2)ccc1Cl | inconclusive: 28.2 µM [inhibitor, partial curve]
45 | Oc1ccc(-c2csc(Nc3ncccn3)n2)c(O)c1 | inactive
46 | FC(F)Oc1ccc(/C=N/n2c(Cc3ccc(Br)cc3)n[nH]c2=S)cc1 | inconclusive: 35.5 µM [inhibitor, single point]
47 | OCC1(CCOc2ccccc2)CCN(Cc2cc(Cl)ccc2O)CC1 | inconclusive: 44.7 µM [inhibitor, single point]
48 | Cc1ncoc1C(=O)Nc1ccc(Oc2ccccc2)cc1 | inconclusive: 20 µM [inhibitor, partial curve]

Row | SMILES | Potency
49 | Cc1ccc(-c2nn(-c3cccc(F)c3)cc2CN2CCN(c3ccccn3)CC2)o1 | inactive
50 | COc1ccc(CSC2=CS(=O)(=O)c3ccccc3N2)cc1 | inconclusive: 15.8 µM [inhibitor, partial curve]
51 | CC1(C)C(N(O)C(=O)Nc2ccc(Cl)cc2)N(c2ccc(Cl)cc2)C(=O)N1CC(=O)NN (stereo not given) | inconclusive: 25.1 µM [inhibitor, partial curve]
52 | O=C1NC(=O)c2cc(NC(=O)C3CCCCC3)ccc21 | inactive
53 | O=C1Nc2ccc(Cl)cc2/C1=C/C1CC=CCC1 (stereo not given) | inconclusive: 50.1 µM [inhibitor, single point]
54 | C/C(=N\NC(=O)c1c(Cl)c(C)nn1C)c1cccc(NC(=O)c2cccc(F)c2)c1 | inconclusive: 50.1 µM [inhibitor, single point]
55 | Cc1ccc(S(=O)(=O)Nc2ccc3c(c2)CCC3)cc1C | inconclusive: 31.6 µM [inhibitor, partial curve]
56 | COc1ccc(-c2cc(-c3ccccc3)nc(Cl)n2)cc1OC | inactive
57 | Cn1c2ccccc2c2cnn(CC(=O)N3CCN(c4cccc(C(F)(F)F)c4)CC3)c(=O)c21 | inconclusive: 50.1 µM [inhibitor, partial curve]
58 | Brc1ccc(OCc2nc(-c3ccccn3)n[nH]2)cc1 | inconclusive: 56.2 µM [inhibitor, single point]
59 | CC(C)NC(=O)C(C)N1CCN(S(=O)(=O)c2ccc3ccccc3c2)CC1 (stereo not given) | inactive
60 | COc1cc(C2Nc3ccccc3C(=O)N2c2ccccc2)ccc1O (stereo not given) | inactive
61 | Cc1cc(=O)[nH]c(SCC2COC3(CCCCC3)O2)n1 (stereo not given) | inconclusive: 35.5 µM [inhibitor, partial curve]
62 | CCOC(=O)N1CCN(CC(O)c2ccc3cc[nH]c3c2)CC1 (stereo not given) | inactive
63 | CCOC(=O)c1cc2c(=O)c3cc(C)ccc3oc2nc1C | inactive
64 | CCn1c(-c2ccc(N(C)C)cc2)nc2ccccc21 | inconclusive: 31.6 µM [inhibitor, partial curve]
65 | CCOC(=O)C1CCN(C(=O)Cn2ncc3c4ccccc4n(Cc4ccc(F)cc4)c3c2=O)CC1 | inactive
66 | CCN(Cc1ccccc1)C(=O)Cn1c(=O)n(-c2cccc(C)c2)c(=O)c2c1c1cc(C)ccc1n2C | inactive
67 | O=C(NC1CCN(Cc2ccccc2)CC1)c1ccccc1OCc1ccccc1 | inactive
68 | C=CCc1ccccc1OCc1nc2ccccc2n1CC | inactive
69 | CCC(C)[C@H](NC(=O)[C@@H]1Cc2c([nH]c3ccccc23)C2c3ccccc3C(=O)N21)C(=O)NCC1CCCO1 (stereo not given in full) | inconclusive: 22.4 µM [inhibitor, partial curve]
70 | CNc1ncc(C(=O)C(C)(C)C)s1 | inconclusive: 25.1 µM [inhibitor, single point]

Reference: PubChem BioAssay AID485281 (National Center for Advancing Translational Sciences (NCATS), 2010)
